Results as given in PubChem BioAssay AID2546 (National Center for Advancing Translational Sciences (NCATS), 2010).
Screen size: about 310,000 compounds; about 11,000 (3.5%) were called active. The shares of active, inactive and inconclusive entries below differ from those in the screen. The call rests on the fitted dose curve; in most records, active means well fitted inhibition curve with a large enough effect; inconclusive means small, poorly fitted or top-dose-only effect, or effect the other way; inactive means flat fitted curve, though single readings scatter. No potency is given beside an inconclusive call; the fits are too rough. Some compounds were tested as several samples or in several runs, with calls that do not always agree.

assay: VP16 counterscreen qHTS for inhibitors of ROR gamma transcriptional activity; details: Drosophila S2 Gal4-VP16 UAS-luciferase, luminescence, 20 h; series mostly up to 53.6 µM;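 further: Gal4-VP16 expression switched on by copper sulfate through the metallothionein promoter; nearly all actives have a fitted effect of over 50% in size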
Potency means the concentration at half of the fitted maximal effect; tags describe the fitted curve by direction and shape.

Row | Compound | Potency
1 | CC(=O)NC(=S)Nc1ccccc1N1CCCCC1 | active: 7.08 µM
2 | CC(=O)N(C1=C(N)C(=O)c2ccccc2C1=O)C(C)C | inactive
3 | COc1ccc(CCNC(=S)NC(=O)c2ccccc2)cc1OC | active: 7.08 µM
4 | CCc1ccc2c(c1)/C(=C/C(=O)c1cccs1)C(=O)N2 | active: 10 µM
5 | Cc1ccc(NC(=S)N/N=C/c2ccc(Cl)c([N+](=O)[O-])c2)cc1 | inconclusive [inhibitor, single point]
6 | O=C(NNC(=O)C1CC=CCC1)c1ccccc1Cl (configuration not stated) | inactive
7 | Nn1cnnc1SCC(=O)N(C1CCCCC1)C1CCCCC1 | inactive
8 | O=[N+]([O-])c1ccc(-c2nc(Nc3cccc(O)c3)c3ccccc3n2)cc1 | inconclusive [inhibitor, single point]
9 | CCCCn1c(CCC(=O)O)ccc1-c1cccs1 | inconclusive [inhibitor, single point]
10 | CC(C)C(=O)Nc1ccc(C(=O)N/N=C/c2cc(Br)cc(Br)c2O)cc1 | inconclusive [inhibitor, single point]
11 | CNS(=O)(=O)c1cccc(C(=O)OCc2cc(=O)n3cc(Br)ccc3n2)c1 | inconclusive [inhibitor, single point]
12 | CN(Cc1ccccc1)c1nc(CN2CCOCC2)nc2scc(-c3ccccc3)c12 | inconclusive [inhibitor, single point]
13 | CSc1nc2[nH]c3c(c2c2ncnn12)CCCC3 | inactive
14 | COc1ccc2[nH]c3c(c2c1)CCC/C3=N\N | inactive
15 | Cc1cccc(CNc2ncnc3ccc(-c4cccc(NS(C)(=O)=O)c4)cc23)c1 | inconclusive [inhibitor, single point]
16 | CCn1c(=O)c([N+](=O)[O-])c(N2CCSCC2)c2ccccc21 | inconclusive [inhibitor, single point]
17 | O=C(NCc1cc([N+](=O)[O-])ccc1O)c1cccnc1Sc1ccc(Cl)cc1 | inactive
18 | O=S(=O)(NCc1ccccn1)c1cccc2nsnc12 | inconclusive [inhibitor, single point]
19 | O=C1CS/C(=N/N=C2CCCC2)N1 | inconclusive [inhibitor, single point]
20 | COc1ccc(/C=N/NC(=O)c2ccccc2F)cc1CN1CCN(c2ccc(F)cc2)CC1 | inconclusive [inhibitor, partial curve]
21 | O=S(=O)(c1ccccc1)N1CCN(C(c2ccccc2)c2ccc(OC(F)(F)F)cc2)CC1 (configuration not stated) | inactive
22 | CCOc1ccc(C(=O)CSc2nnc3ccccn23)cc1 | inconclusive [inhibitor, single point]
23 | O=[N+]([O-])c1cccc(/C=C/c2ccncc2)c1 | inactive
24 | Cc1ccc2nc(Nc3nc(CSc4nnc(C)s4)cc(=O)[nH]3)nc(C)c2c1 | inactive

Row | Compound | Potency
25 | C=CCn1c(C)cc(C2=NNC(=NCC)SC2)c1C | active: 1 µM
26 | CCC(C)c1ccc(OCc2ccc(C(=O)O)o2)cc1 (configuration not stated) | inconclusive [inhibitor, single point]
27 | C/C(CC(=O)Nc1ccc(Cl)c(Cl)c1)=N\NC(N)=S | active: 11.2 µM
28 | COc1ccc(-c2nnc(SCC(=O)Nc3cc(F)ccc3C)o2)cc1 | inactive
29 | Cn1c(SCC(=O)NCc2ccco2)nc2ccccc2c1=O | inactive
30 | COc1cc(CC(=O)OCC(=O)Nc2sccc2C(N)=O)cc(OC)c1OC | inconclusive [inhibitor, partial curve]
31 | Nc1cc(=O)[nH]c(SC/C=C/c2ccccc2)n1 | inconclusive [inhibitor, single point]
32 | COc1ccc(-c2cc(-c3c(O)c(OC)c4occc4c3OC)[nH]n2)cc1 | inconclusive [inhibitor, single point]
33 | O=C(CSc1ccccc1)Nc1nc2ccccc2[nH]1 | inconclusive [inhibitor, single point]
34 | COc1ccc2c(c1)CCC1[C@@H]2CCC2(C)[C@@H](NCCCCCCN3C(=O)C=CC3=O)CC[C@@H]12 (some centres not stated) | inactive
35 | CCOc1cccc(C(=O)NC(=S)Nc2ccc(N3CCCC3)cc2)c1 | active: 6.31 µM
36 | O=C(O)c1cccc(N=NN2CCCCCC2)c1 | inconclusive [inhibitor, single point]
37 | O=C(NNC(=O)c1cc(OCC(F)(F)F)ccc1OCC(F)(F)F)c1cccc(C(F)(F)F)c1 | inconclusive [inhibitor, single point]
38 | O=C(CN1C(=O)C2C3CC(C(Br)C3Br)C2C1=O)Nc1ccc(C(=O)O)cc1 (configuration not stated) | inconclusive [activator, single point]
39 | COc1ccc(-c2cn3cccnc3n2)cc1NC(=O)C(C)Oc1ccccc1 (configuration not stated) | inactive
40 | CCCn1c(=S)[nH]c2cc(C(=O)N3CCCC(C(=O)OCC)C3)ccc2c1=O (configuration not stated) | inconclusive [inhibitor, single point]
41 | Cc1nc2ccc(Br)cn2c1C(=O)N/N=C\c1ccccc1Cl | inconclusive [inhibitor, single point]
42 | CCOC(=O)c1c(NC(=O)C2=C(C)NC(=S)NC2c2ccccc2C(F)(F)F)sc(C)c1C (configuration not stated) | active: 3.55 µM
43 | COc1ccc(/C=C/C(=O)N2CCN(S(=O)(=O)c3ccccc3)CC2)cc1OC | inactive
44 | Cc1cccc(C(=O)NC(=S)NNC(=O)COc2c(C)cccc2C)c1 | inconclusive [inhibitor, single point]
45 | CC(C(=O)NC1C=CS(=O)(=O)C1)N1C(=O)/C(=C\c2ccccc2)SC1=S (configuration not stated) | inconclusive [inhibitor, single point]
46 | CC(=O)CSc1ncnc2sc3c(c12)CCC(C)C3 (configuration not stated) | inconclusive [inhibitor, partial curve, poor fit]
47 | COc1ccc(-c2csc(Nc3ccc(S(=O)(=O)Nc4cc(OC)nc(OC)n4)cc3)n2)cc1 | inconclusive [inhibitor, single point]
48 | COc1c(O)cc2oc3cc(O)c(CC=C(C)C)c(O)c3c(=O)c2c1CC=C(C)C | active: 25.1 µM

Row | Compound | Potency
49 | COCCCNC(=O)c1ccc2c(=O)n(Cc3ccc(Cl)cc3)c(=S)[nH]c2c1 | inconclusive [inhibitor, single point]
50 | COc1ccc2occ(C(=O)c3coc4ccc(O)c(CN(C)C)c34)c2c1 | inconclusive [inhibitor, single point]
51 | COc1ccccc1NC(=O)CSc1nnc(-c2ccccn2)o1 | inconclusive [activator, partial curve]
52 | Cc1ccccc1C(=O)NNC(=O)/C=C\C(=O)O | inconclusive [inhibitor, single point]
53 | COc1ccc(C2NC(=S)NC3=C2CCc2ccccc23)cc1OC (configuration not stated) | inconclusive [inhibitor, partial curve, poor fit]
54 | c1csc(-c2csc3nc(CN4CCOCC4)nc(NCc4ccc5c(c4)OCO5)c23)c1 | inconclusive [inhibitor, single point]
55 | Cc1c(O)cc2n(c1=O)-c1ccc(Cl)cc1C2(C)C | inconclusive [inhibitor, single point]
56 | c1ccc(-n2nnnc2Sc2ncnc3sc4c(c23)CCCC4)cc1 | inconclusive [inhibitor, single point]
57 | CN1CCN(C(=S)c2ccc(OCC(=O)Nc3cccc(C(F)(F)F)c3)cc2)CC1 | inconclusive [inhibitor, single point]
58 | C(=C\c1nc(-c2cccnc2)no1)/c1ccccc1 | inconclusive [inhibitor, single point]
59 | S=C1NCN(Cc2ccco2)CN1c1ccccc1 | inactive
60 | O=C(Nc1ccc2c(c1)OCO2)c1cc(-c2ccncc2)nc2ccccc12 | inactive
61 | COc1ccc(-c2csc(NC(=O)c3ccccc3NS(=O)(=O)c3ccc(C)cc3)n2)cc1 | inconclusive [inhibitor, single point]
62 | O=C1C=CC(=O)N1CCNc1ncc(C(F)(F)F)cc1Cl | active: 6.31 µM
63 | Cc1ccc(C(=O)Nc2ccc(Cl)cn2)cc1 | inconclusive [inhibitor, full curve]
64 | COCCCn1c(-c2ccccc2Cl)n[nH]c1=S | inconclusive [inhibitor, single point]
65 | COc1ccc(Cl)cc1C(=O)NNC(=S)NC1CCCCC1 | inconclusive [inhibitor, single point]
66 | CC(=O)N/C(=C\c1ccccc1)C(=O)OCC(=O)NC(C)C12CC3CC(CC(C3)C1)C2 (configuration not stated) | inconclusive [inhibitor, partial curve]
67 | CC(C)n1c(=S)[nH]c2cc(Cl)ccc21 | active: 20 µM
68 | CC1(C)CC(=O)C2=C(C1)OC(N)=C(C#N)C2c1cccc(OC(=O)c2ccco2)c1 (configuration not stated) | inconclusive [inhibitor, single point]
69 | COc1ccc(NC(=S)NCc2ccc(F)cc2)c(OC)c1 | inconclusive [inhibitor, single point]
70 | CCOC(=O)c1c(-c2cccc([N+](=O)[O-])c2)csc1NC(=O)C1CC1 | inconclusive [inhibitor, single point]
71 | CC1=C(C(=O)OCc2ccccc2)C(c2ccc(Cl)cc2Cl)NC(=O)N1CCCC(=O)O (configuration not stated) | inconclusive [inhibitor, single point]
72 | CCOC(=O)N1CCC(NC(=O)CC2C(=O)NCCN2Cc2ccccc2F)CC1 (configuration not stated) | inactive
